Out of some 360,000 compounds screened, about 17,000 (4.7%) were called active. The shares of active, inactive and inconclusive entries below differ from those in the screen. No stated cut-off is given here; in the data, active means activity change below about -50%; inconclusive means mostly about -30% to -49%; inactive means weaker than that. Where a structure was tested more than once in an assay, its records may differ in their call.
Assay: qHTS for Inhibitors of Inflammasome Signaling: IL-1-beta AlphaLISA Primary Screen
Settings: THP-1 LPS/ATP IL-1B secretion, 16 h; at 57.5 µM, active compounds read low
Outline: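 THP-1 cells pretreated 1 hr with compounds (up to 57.5 uM final), then stimulated with LPS (250 ng/mL final) plus ATP (1.25 mM final); secreted IL-1B measured by AlphaLISA after 16 hr, decreased signal indicating inhibition.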
On the % scale 0 is the no-effect control and ±100 the full control effect.

Activity change, inconclusive:
COc1ccccc1NC(=O)c1ccc(NC(=O)COC(=O)C2CC2C)cc1 (stereo unspecified) -43.9%
CC1CC(C)CN(CCCNC(=O)CN2C(=O)c3cccnc3Oc3ccc(Cl)cc32)C1 (stereo unspecified) -34.4%
Cn1c(C(=O)N2CCc3ccccc3C2)cc2oc3ccccc3c21 -36.2%
Cc1ccc2nc(-c3ccc(C#N)cc3)c(Cc3ccccc3)n2c1 -39%
CC(C)[N+](C)(CCOC(=O)C1c2ccccc2Oc2ccccc21)C(C)C -49.9%
CCN(CC)CCN1CCn2c3c(c4cc(C)ccc42)CCCC31 (stereo unspecified) -34.7%
O=C(CCCC(=O)N1CCN(c2ccc([N+](=O)[O-])cc2)CC1)c1ccccc1 -48.2%
Cc1cc2n(n1)SC(Nc1cc(Cl)ccc1Cl)N2 (stereo unspecified) -39.1%
C[C@H](CO)N1C[C@H](C)[C@@H](CN(C)S(=O)(=O)c2cccs2)Oc2c(NC(=O)NC3CCCCC3)cccc2C1=O -31.1%
COc1ccc([N+](=O)[O-])cc1NCc1ccco1 -39.3%
Cc1ccc(C)n1CCN1CCN(C(=O)c2ccc(Cl)cc2)CC1 -42.3%
Cc1ccc[n+](C(C)C(=O)c2ccc(-c3ccccc3)cc2)c1 (stereo unspecified) -40.4%
O=C(Nc1ccc2c(c1)OCO2)C1CCN(C(=O)c2ccc(Cl)cc2)CC1 -44.7%
CCOC(=O)N1CCN(C(=O)c2ccc3nc(N4CCC(C)CC4)sc3c2)CC1 -48.5%
CCOc1cnn(Cc2ccccc2)c(=O)c1SCc1ccccc1 -38.1%
CC(=O)c1ccccc1Oc1nc(CN2CCOCC2)nc2scc(-c3cccs3)c12 -42.1%
Cc1cccnc1NC(=O)c1ccc(S(=O)(=O)N2CCCC2)cc1 -33.1%
Cc1cc(C)n2c(SCc3nnc(-c4cccs4)o3)nnc2n1 -34.7%
CCOC(=O)c1cnc2ccccc2c1NCc1ccco1 -31.2%
COc1cc2nc(NC(=O)c3ccccc3)sc(=O)c2cc1OC -37.5%
CC(c1ccccc1)N1CC(C(=O)Nc2ccc(F)cc2)CC1=O (stereo unspecified) -45.8%
O=C(c1cccc(S(=O)(=O)N2CCCCCC2)c1)N1CCN(c2ccccc2F)CC1 -46%
COc1ccc(CNCC(O)(c2ccc(Cl)cc2)c2ccc(Cl)cc2)cc1OC -46.7%
O=C(N/N=C/c1cccc(O)c1)c1cc2c(ccc3ccccc32)o1 -33.1%
Cc1ccc(CCNC(=O)CN2C(=O)COc3ccc(S(=O)(=O)N4CCCCC4)cc32)cc1 -39.1%
C=CCn1c(SCCOc2ccc(OC)cc2)nnc1C(NC(=O)c1ccc(OC)cc1)C(C)C (stereo unspecified) -35.5%
Cc1ccc2c(c1)c1c3n2CCNC3CCC1 (stereo unspecified) -30.6%
CCCCOc1ccc(-c2cc(C(=O)NNC(=S)NCC)c3ccccc3n2)cc1 -31.9%

Activity change, active:
O=C1[C@H](Cc2ccccc2)NCC=CC[C@H](c2ccc(Cl)cc2)N1Cc1ccc(Cl)cc1 -65.5%
c1ccc(C2(CN3CCNC[C@H]3Cc3cccc4ccccc34)CC2)cc1 -67.5%
Cc1ccc(C(=O)C2CCN(CC(=O)N3CCN(c4ccc(F)cc4)CC3)CC2)cc1 -55.5%
COc1cc(C(=O)NCC2CCCO2)ccc1OCc1ccc(Cl)cc1Cl (stereo unspecified) -86%
CC(C)CC1Nc2ncnc(N3CCN(c4ccccn4)CC3)c2N(Cc2ccc(Cl)cc2)C1=O (stereo unspecified) -70%
CCOc1ccc(S(=O)(=O)NCCC(=O)Nc2cccc(C(=O)OC)c2)cc1 -74.3%
Cc1ccc(-c2csc(NC(=O)/C=C/c3cccs3)n2)cc1C -80.2%
COc1ccc(Nc2nc(N)c([N+](=O)[O-])c(NC3CCCCC3)n2)cc1 -95.4%
Oc1cccc2ccc(Nc3ccccn3)nc12 -110%

Activity change, inactive:
CCOc1ccc(NC(=O)Cc2ccc(S(=O)(=O)N3CCCCC3)cc2)cc1OCC 9.2%
CCN(Cc1nc2cc(Cl)ccc2c(=O)[nH]1)C(=O)c1cccc(NC(=O)c2cccs2)c1 -14.9%
Cc1ccc2nc(-c3ccccc3)c(Cc3cccc(F)c3)n2c1 22.3%
N#CC1(NC(=O)CSc2nncn2-c2ccccc2F)CCCC1 8.88%
Cc1n[nH]c(=O)c2c1nnn2Cc1ccccc1Cl 24.4%
COC(=O)c1sccc1NC(=O)CC1C(=O)NCCN1C(=O)Nc1ccc(OCc2ccccc2)cc1 (stereo unspecified) -13%
C=CCOc1ccc(/C=N/NC(=O)C(C)Sc2ccccn2)cc1OC (stereo unspecified) 12.6%
CCCCn1c(CNC(=O)c2cccs2)nc2ccccc21 4.8%
Cc1ccc(Cc2c(-c3ccco3)nc3ccc(Br)cn23)cc1 -15.8%
COc1c(C)cc(Br)cc1C(=O)Nc1ccccc1C -9.17%
COC(=O)CN(c1ccccc1)S(=O)(=O)c1ccccc1 38.8%
COC(=O)CNC(=O)C1Cc2ccccc2CN1S(=O)(=O)c1ccc(F)cc1 (stereo unspecified) 5.96%
COc1ccc(OC)c(NC(=O)c2cc3c(=O)n4ccccc4nc3n2C)c1 -0.985%
CC1CCC(C#N)(N(C)C(=O)CSc2nnc(C3CC3)n2C2CC2)CC1 (stereo unspecified) 10.4%
Fc1cccc(Cc2c(-c3ccc(Cl)cc3)nc3c(Cl)cc(C(F)(F)F)cn23)c1 -9.97%
Cc1nc([N+](=O)[O-])cn1CC(=O)Nc1ccc(F)c(Cl)c1 39.7%
C/C(=N\NC(=O)c1cccc(S(=O)(=O)N2CCCC2)c1)c1cccs1 -8.76%
Cc1nc(SCC(=O)NC2CC2)c2c(C)c(C)sc2n1 3.73%
C[C@H](CO)N1C[C@H](C)[C@@H](CN(C)Cc2ccc3c(c2)OCO3)OCc2cnnn2CCCC1=O 19.4%
